Repeats are few or missing, and single values can be far off.
What was measured:
CHO-K1 [1] = assay: micronucleus frequency (% of nucleated events); higher = more micronuclei (genotoxic)
CHO-K1 [2] = assay: hypodiploid nuclei frequency (% of nucleated events); higher = more hypodiploid events (aneugenic)
Description: (§1)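 Flow-cytometric in vitro micronucleus assay (Litron MicroFlow) in CHO-K1 cells in 96-well plates, 19 concentrations (4.5-200 µM, n=1 per concentration). Without S9, cells were exposed for 24 h and sampled at 48 h. With Aroclor 1254-induced rat liver S9, cells were exposed for 3-4 h and sampled at 27-28 h. Read-outs are %MN and %hypodiploid nuclei relative to nucleated events, and relative survival as the nuclei-to-bead ratio versus the 1% DMSO vehicle control (x100).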

CHO-K1 [3] = assay: relative survival (nuclei to bead ratio vs DMSO control) (% of vehicle control); higher = more surviving cells
Description: as §1
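For hypodiploid nuclei frequency (% of nucleated events) in this document: hypodiploid nuclei gated on a flow cytometer with 488 nm excitation after SYTOX Green staining, cultures at 37 °C, positive controls vinblastine without S9 and cyclophosphamide with S9.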
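For micronucleus frequency (% of nucleated events) in this document: cells lysed with nuclei stained by SYTOX Green, then micronucleus-gated events counted against nucleated events by flow cytometry with 488 nm excitation.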
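For relative survival (nuclei to bead ratio vs DMSO control) in this document: Lysed-cell nuclei stained with SYTOX Green and counted against counting beads by flow cytometry at 488 nm excitation, with vinblastine (no S9) and cyclophosphamide (plus S9) as positive controls.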

O=C1CCCCCN1 [Caprolactam]
Details	hypodiploid nuclei frequency, CHO-K1 [2] [%]	micronucleus frequency, CHO-K1 [1] [%]	relative survival, CHO-K1 [3]
concentration: 4.46 (µM), S9 metabolic activation: with S9, exposure time: 3-4 hours	0.4	2.06	160
concentration: 4.46 (µM), S9 metabolic activation: without S9, exposure time: 24 hours	0.9	1.3	123
concentration: 5.57 (µM), S9 metabolic activation: with S9, exposure time: 3-4 hours	0.2	1.26	105
concentration: 5.57 (µM), S9 metabolic activation: without S9, exposure time: 24 hours	0.78	1.5	125
concentration: 6.97 (µM), S9 metabolic activation: with S9, exposure time: 3-4 hours	0.16	0.94	116
concentration: 6.97 (µM), S9 metabolic activation: without S9, exposure time: 24 hours	0.92	1.42	122
concentration: 8.71 (µM), S9 metabolic activation: with S9, exposure time: 3-4 hours	0.18	1.12	93
concentration: 8.71 (µM), S9 metabolic activation: without S9, exposure time: 24 hours	0.94	2.32	131
concentration: 10.9 (µM), S9 metabolic activation: with S9, exposure time: 3-4 hours	0.16	1.28	117
concentration: 10.9 (µM), S9 metabolic activation: without S9, exposure time: 24 hours	0.9	2.1	114
concentration: 13.6 (µM), S9 metabolic activation: with S9, exposure time: 3-4 hours	0.16	1.46	94.8
concentration: 13.6 (µM), S9 metabolic activation: without S9, exposure time: 24 hours	0.72	0.94	119
concentration: 17 (µM), S9 metabolic activation: with S9, exposure time: 3-4 hours	0.2	1.48	89.9
concentration: 17 (µM), S9 metabolic activation: without S9, exposure time: 24 hours	0.66	1.44	110
concentration: 21.3 (µM), S9 metabolic activation: with S9, exposure time: 3-4 hours	0.16	0.94	91.1
concentration: 21.3 (µM), S9 metabolic activation: without S9, exposure time: 24 hours	0.8	1.48	100
concentration: 26.6 (µM), S9 metabolic activation: with S9, exposure time: 3-4 hours	0.36	0.6	113
concentration: 26.6 (µM), S9 metabolic activation: without S9, exposure time: 24 hours	0.6	1.16	125
concentration: 33.2 (µM), S9 metabolic activation: with S9, exposure time: 3-4 hours	0.24	0.82	126
concentration: 33.2 (µM), S9 metabolic activation: without S9, exposure time: 24 hours	0.76	2.14	137
concentration: 41.5 (µM), S9 metabolic activation: with S9, exposure time: 3-4 hours	0.3	1.1	132
concentration: 41.5 (µM), S9 metabolic activation: without S9, exposure time: 24 hours	0.56	1.5	145
concentration: 51.9 (µM), S9 metabolic activation: with S9, exposure time: 3-4 hours	0.22	1.32	105
concentration: 51.9 (µM), S9 metabolic activation: without S9, exposure time: 24 hours	0.9	2.56	126
concentration: 64.9 (µM), S9 metabolic activation: with S9, exposure time: 3-4 hours	0.36	1.48	123
concentration: 64.9 (µM), S9 metabolic activation: without S9, exposure time: 24 hours	0.96	1.78	144
concentration: 81.1 (µM), S9 metabolic activation: with S9, exposure time: 3-4 hours	0.36	2.14	125
concentration: 81.1 (µM), S9 metabolic activation: without S9, exposure time: 24 hours	1.04	3.7	107
concentration: 101 (µM), S9 metabolic activation: with S9, exposure time: 3-4 hours	0.32	3.02	113
concentration: 101 (µM), S9 metabolic activation: without S9, exposure time: 24 hours	1	2	120
concentration: 127 (µM), S9 metabolic activation: with S9, exposure time: 3-4 hours	0.2	1.62	115
concentration: 127 (µM), S9 metabolic activation: without S9, exposure time: 24 hours	1.04	2.9	103
concentration: 158 (µM), S9 metabolic activation: with S9, exposure time: 3-4 hours	0.36	2.18	117
concentration: 158 (µM), S9 metabolic activation: without S9, exposure time: 24 hours	1.16	2.62	98
concentration: 198 (µM), S9 metabolic activation: with S9, exposure time: 3-4 hours	0.32	1.46	93.5
concentration: 198 (µM), S9 metabolic activation: without S9, exposure time: 24 hours	1.46	2.04	81.3

Cc1c(C(=O)O)c(O)cc2c1C(=O)c1c(O)c([C@@H]3O[C@H](CO)[C@@H](O)[C@H](O)[C@H]3O)c(O)c(O)c1C2=O [Carminic acid]
Details	hypodiploid nuclei frequency, CHO-K1 [2] [%]	micronucleus frequency, CHO-K1 [1] [%]	relative survival, CHO-K1 [3]
concentration: 4.5 (µM), S9 metabolic activation: with S9, exposure time: 3-4 hours	0.2	1.36	55.5
concentration: 4.5 (µM), S9 metabolic activation: without S9, exposure time: 24 hours	0.7	1.92	107
concentration: 5.63 (µM), S9 metabolic activation: with S9, exposure time: 3-4 hours	0.22	1.42	61.5
concentration: 5.63 (µM), S9 metabolic activation: without S9, exposure time: 24 hours	0.84	1.78	96.4
concentration: 7.04 (µM), S9 metabolic activation: with S9, exposure time: 3-4 hours	0.26	2.42	68.8
concentration: 7.04 (µM), S9 metabolic activation: without S9, exposure time: 24 hours	0.86	1.92	107
concentration: 8.8 (µM), S9 metabolic activation: with S9, exposure time: 3-4 hours	0.18	1.38	69.6
concentration: 8.8 (µM), S9 metabolic activation: without S9, exposure time: 24 hours	0.7	2.02	96.8
concentration: 11 (µM), S9 metabolic activation: with S9, exposure time: 3-4 hours	0.18	1.46	71.8
concentration: 11 (µM), S9 metabolic activation: without S9, exposure time: 24 hours	0.84	1.76	105
concentration: 13.7 (µM), S9 metabolic activation: with S9, exposure time: 3-4 hours	0.26	1.92	67.3
concentration: 13.7 (µM), S9 metabolic activation: without S9, exposure time: 24 hours	1.06	2.1	90.3
concentration: 17.2 (µM), S9 metabolic activation: with S9, exposure time: 3-4 hours	0.18	2.2	103
concentration: 17.2 (µM), S9 metabolic activation: without S9, exposure time: 24 hours	0.92	2.04	92.9
concentration: 21.5 (µM), S9 metabolic activation: with S9, exposure time: 3-4 hours	0.3	2.04	102
concentration: 21.5 (µM), S9 metabolic activation: without S9, exposure time: 24 hours	2.12	1.56	96
concentration: 26.8 (µM), S9 metabolic activation: with S9, exposure time: 3-4 hours	0.12	1.88	90.9
concentration: 26.8 (µM), S9 metabolic activation: without S9, exposure time: 24 hours	3.68	1.22	74.5
concentration: 33.6 (µM), S9 metabolic activation: with S9, exposure time: 3-4 hours	0.24	1.44	109
concentration: 33.6 (µM), S9 metabolic activation: without S9, exposure time: 24 hours	40.8	1.48	65.2
concentration: 41.9 (µM), S9 metabolic activation: with S9, exposure time: 3-4 hours	0.18	1.58	77
concentration: 41.9 (µM), S9 metabolic activation: without S9, exposure time: 24 hours	2.14	1.98	104
concentration: 52.4 (µM), S9 metabolic activation: with S9, exposure time: 3-4 hours	0.08	1.54	75.7
concentration: 52.4 (µM), S9 metabolic activation: without S9, exposure time: 24 hours	2.64	1.48	84
concentration: 65.5 (µM), S9 metabolic activation: with S9, exposure time: 3-4 hours	0.28	1.52	67.8
concentration: 65.5 (µM), S9 metabolic activation: without S9, exposure time: 24 hours	1.2	1.38	98.6
concentration: 81.9 (µM), S9 metabolic activation: with S9, exposure time: 3-4 hours	0.24	1	74.7
concentration: 81.9 (µM), S9 metabolic activation: without S9, exposure time: 24 hours	1.38	2.54	106
concentration: 102 (µM), S9 metabolic activation: with S9, exposure time: 3-4 hours	0.3	1.22	80.5
concentration: 102 (µM), S9 metabolic activation: without S9, exposure time: 24 hours	5.4	2.2	89.9
concentration: 128 (µM), S9 metabolic activation: with S9, exposure time: 3-4 hours	0.2	1.42	72.8
concentration: 128 (µM), S9 metabolic activation: without S9, exposure time: 24 hours	–	–	36.3
concentration: 160 (µM), S9 metabolic activation: with S9, exposure time: 3-4 hours	0.34	1.52	84.4
concentration: 160 (µM), S9 metabolic activation: without S9, exposure time: 24 hours	2.48	2.04	87.8
concentration: 200 (µM), S9 metabolic activation: with S9, exposure time: 3-4 hours	0.28	1.5	95.9
concentration: 200 (µM), S9 metabolic activation: without S9, exposure time: 24 hours	2.92	2.9	95.3

Nc1cc(Cl)cc(C(=O)O)c1Cl [Chloramben]
Details	hypodiploid nuclei frequency, CHO-K1 [2] [%]	micronucleus frequency, CHO-K1 [1] [%]	relative survival, CHO-K1 [3]
concentration: 4.5 (µM), S9 metabolic activation: with S9, exposure time: 3-4 hours	0.34	1.94	81.7
concentration: 4.5 (µM), S9 metabolic activation: without S9, exposure time: 24 hours	0.9	1.64	102
concentration: 5.63 (µM), S9 metabolic activation: with S9, exposure time: 3-4 hours	0.48	1.24	88.3
concentration: 5.63 (µM), S9 metabolic activation: without S9, exposure time: 24 hours	0.96	1.6	108
concentration: 7.04 (µM), S9 metabolic activation: with S9, exposure time: 3-4 hours	0.6	1.72	88.5
concentration: 7.04 (µM), S9 metabolic activation: without S9, exposure time: 24 hours	0.88	1.42	100
concentration: 8.8 (µM), S9 metabolic activation: with S9, exposure time: 3-4 hours	0.52	1.7	106
concentration: 8.8 (µM), S9 metabolic activation: without S9, exposure time: 24 hours	1.28	1.66	108
concentration: 11 (µM), S9 metabolic activation: with S9, exposure time: 3-4 hours	0.58	1.72	89.5
concentration: 11 (µM), S9 metabolic activation: without S9, exposure time: 24 hours	1.04	1.56	120
concentration: 13.7 (µM), S9 metabolic activation: with S9, exposure time: 3-4 hours	0.64	1.9	90.6
concentration: 13.7 (µM), S9 metabolic activation: without S9, exposure time: 24 hours	1	1.12	120
concentration: 17.2 (µM), S9 metabolic activation: with S9, exposure time: 3-4 hours	1.04	1.44	96.4
concentration: 17.2 (µM), S9 metabolic activation: without S9, exposure time: 24 hours	1.3	1.3	158
concentration: 21.5 (µM), S9 metabolic activation: with S9, exposure time: 3-4 hours	1.18	1.9	97.6
concentration: 21.5 (µM), S9 metabolic activation: without S9, exposure time: 24 hours	0.96	1.18	115
concentration: 26.8 (µM), S9 metabolic activation: with S9, exposure time: 3-4 hours	0.48	2.28	71.4
concentration: 26.8 (µM), S9 metabolic activation: without S9, exposure time: 24 hours	1.04	2.1	85.6
concentration: 33.6 (µM), S9 metabolic activation: with S9, exposure time: 3-4 hours	0.76	1.84	89.8
concentration: 33.6 (µM), S9 metabolic activation: without S9, exposure time: 24 hours	0.8	1.6	103
concentration: 41.9 (µM), S9 metabolic activation: with S9, exposure time: 3-4 hours	0.66	1.32	87.3
concentration: 41.9 (µM), S9 metabolic activation: without S9, exposure time: 24 hours	1	2.06	98.5
concentration: 52.4 (µM), S9 metabolic activation: with S9, exposure time: 3-4 hours	1.52	1.44	98.2
concentration: 52.4 (µM), S9 metabolic activation: without S9, exposure time: 24 hours	1.16	1.72	89.4
concentration: 65.5 (µM), S9 metabolic activation: with S9, exposure time: 3-4 hours	2.12	1.56	95.5
concentration: 65.5 (µM), S9 metabolic activation: without S9, exposure time: 24 hours	1.08	1.84	87.4
concentration: 81.9 (µM), S9 metabolic activation: with S9, exposure time: 3-4 hours	0.62	1.58	71.9
concentration: 81.9 (µM), S9 metabolic activation: without S9, exposure time: 24 hours	1.26	1.62	100
concentration: 102 (µM), S9 metabolic activation: with S9, exposure time: 3-4 hours	0.9	1.84	88.3
concentration: 102 (µM), S9 metabolic activation: without S9, exposure time: 24 hours	1.54	2.26	104
concentration: 128 (µM), S9 metabolic activation: with S9, exposure time: 3-4 hours	1.62	2.06	88.3
concentration: 128 (µM), S9 metabolic activation: without S9, exposure time: 24 hours	1.82	1.96	118
concentration: 160 (µM), S9 metabolic activation: with S9, exposure time: 3-4 hours	0.68	2.06	85.9
concentration: 160 (µM), S9 metabolic activation: without S9, exposure time: 24 hours	1.9	1.36	145
concentration: 200 (µM), S9 metabolic activation: with S9, exposure time: 3-4 hours	0.48	2.02	88.5
concentration: 200 (µM), S9 metabolic activation: without S9, exposure time: 24 hours	2.36	3.04	98.5

From the supplement of paper PMC9151546
